Measured values from PubChem BioAssay AID488969 (Vanderbilt High Throughput Screening Facility, 2010).
Whole data set: some 110,000 compounds, median “z-score” near -0.1, cut for the highest 2% near 2. The list shows a part of the results.

biological target: Metabotropic glutamate receptor 8 (Rattus norvegicus) (UniProt P70579); assay: mGluR8 Gi/Go-coupled signaling modulation – cell-based, rat, thallium flux, HTS, primary screen (AID 488969); details: HEK293 rat mGluR8, GIRK (G protein-gated inwardly rectifying potassium channel) thallium flux, FluoZin2; at 10 µM; stronger effect = higher value; submaximal glutamate (EC20) added with thallium
Chain of UniProt P70579 (P70579 whole entry, looked up): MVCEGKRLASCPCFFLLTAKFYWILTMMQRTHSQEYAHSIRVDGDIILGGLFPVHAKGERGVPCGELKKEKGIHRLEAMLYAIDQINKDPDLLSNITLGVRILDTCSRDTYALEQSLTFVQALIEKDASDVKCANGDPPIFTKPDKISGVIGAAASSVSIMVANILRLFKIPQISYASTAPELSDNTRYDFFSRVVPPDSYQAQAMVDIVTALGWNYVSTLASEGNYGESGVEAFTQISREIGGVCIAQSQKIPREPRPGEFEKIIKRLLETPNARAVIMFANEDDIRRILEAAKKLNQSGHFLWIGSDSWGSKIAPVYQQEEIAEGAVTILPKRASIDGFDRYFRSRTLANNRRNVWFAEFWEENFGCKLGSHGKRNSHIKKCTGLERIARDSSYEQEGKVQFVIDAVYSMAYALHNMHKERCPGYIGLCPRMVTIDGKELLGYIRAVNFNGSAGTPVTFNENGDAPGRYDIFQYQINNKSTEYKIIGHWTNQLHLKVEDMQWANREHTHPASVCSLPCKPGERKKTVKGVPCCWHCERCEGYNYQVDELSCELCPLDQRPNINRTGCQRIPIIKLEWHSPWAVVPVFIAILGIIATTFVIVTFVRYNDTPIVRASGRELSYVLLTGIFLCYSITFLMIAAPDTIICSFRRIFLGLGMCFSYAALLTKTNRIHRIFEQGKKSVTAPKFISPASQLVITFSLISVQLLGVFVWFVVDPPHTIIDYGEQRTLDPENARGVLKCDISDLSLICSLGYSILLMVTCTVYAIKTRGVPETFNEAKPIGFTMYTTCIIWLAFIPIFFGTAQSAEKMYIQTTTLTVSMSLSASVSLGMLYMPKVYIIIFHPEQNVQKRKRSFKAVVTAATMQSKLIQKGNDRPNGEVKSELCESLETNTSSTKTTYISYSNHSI

SMILES | z-score
CN(C)S(=O)(=O)c1cccc(NC(=O)CSc2nc3ccccc3n2-c2ccccc2)c1 | -0.45
O=C(CSc1ncn(-c2ccccc2)n1)N1CCN(c2ccccc2)CC1 | -0.143
Cc1cc2ccccc2n1CCNC(=O)C(C)(C)C | -0.117
CCOC(=O)C(CC)(CC)C(=O)/C=C/c1cccc(Br)c1 | 0.00139
CCCCN(Cc1cc2cc(OC)ccc2[nH]c1=O)C(=O)c1ccccn1 | 0.52
COc1cc(/C=C/C(=O)c2c(O)cc(C)oc2=O)cc(OC)c1O | -0.527
Cc1ccc(S(=O)(=O)Nc2nc3ccccc3nc2NCc2ccco2)cc1 | 0.0124
O=C(OCC(=O)N1CCN(C(=O)c2ccco2)CC1)c1cc(-c2cccc(Br)c2)nc2ccccc12 | -0.679
O=C(CCn1c(=O)sc2ccccc21)Nc1ccon1 | -0.246
CC(=O)Nc1ccc(Oc2ccc3nc(C)[nH]c3c2)cc1 | -0.575
CCNC(=O)N1c2ccc(OCC)cc2C(C)=CC1(C)C | 0.273
COc1cccc(-c2cc(C(=O)NCCc3ccccc3)no2)c1 | -0.175
COCCSc1nnc(NC(=O)CSCc2ccccc2)s1 | 0.254
Cc1ccc(C2NC(=O)NC3=C2CCc2ccccc23)cc1 (stereo not given) | -0.891
CCc1c(C)nc(SCCOc2ccc(OC)cc2)[nH]c1=O | -0.345
CCOC(=O)Cc1csc(NC(=O)CSc2nnc(-c3ccc(OC)cc3)n2C)n1 | 0.0425
CCCCCCCCCCS(=O)(=O)N/N=C/c1ccc([N+](=O)[O-])cc1 | 0.15
CCCC(c1nnnn1Cc1cccs1)N1CCN(c2ccc(OC)cc2)CC1 (stereo not given) | -0.302
Cc1occc1C(=O)NNC(=S)Nc1ccccc1C(F)(F)F | 0.0614
N#CC1=C(N)OC2=C(CC/C2=C\c2ccccc2)C1c1ccccc1 (stereo not given) | -0.2
CCCNC(=O)c1cc(OC)c(OC)cc1[N+](=O)[O-] | -0.0312
COC(=O)C1=CN(C2CC2)C=C(C(=O)OC)C1c1ccccc1OC | -0.00613
Clc1ccccc1-c1nnc2sc(-c3ccncc3)nn12 | -0.306
CNC(=O)CCn1nc(-c2ccc(Cl)cc2)c2ccccc2c1=O | -0.0234

SMILES | z-score
Cc1onc(-c2c(Cl)cccc2Cl)c1C(=O)Nc1ccc2c(c1)OCO2 | -0.24
Cc1ccccc1NC(=O)CCN1CCCCCC1 | 0.00359
COc1ccc(CN(C(=O)c2ccco2)C2CC(C)N(C)CC2C)cc1 (stereo not given) | -0.0429
CCC(=O)Oc1cccc(C(=O)Nc2ccc(-c3nnc(-c4ccco4)o3)cc2)c1 | -0.538
O=C(CSc1nc2cc([N+](=O)[O-])ccc2n1-c1ccc(F)cc1)NC1CCS(=O)(=O)C1 (stereo not given) | 0.00255
O=C(Nc1ccc(Cl)c(Cl)c1)Nc1cc(C(=O)NC2CC2)ccc1Cl | -0.0443
Cc1cc(C)c2c(-n3cccc3)c(C(=O)NNS(=O)(=O)c3ccc(F)cc3)sc2n1 | -0.735
O=C(O)c1ccc(CNc2ccccc2C(=O)O)cc1 | -0.547
O=S(=O)(c1cc(Cl)ccc1Cl)N1CCNCC1 | 0.216
O=C1CCCc2c1cc(C(=O)Nc1ccc(Cl)cn1)c(=O)n2-c1ccccc1 | -0.114
O=C(CCc1ccc(S(=O)(=O)N2CCOCC2)cc1)OCc1nc2ccccc2s1 | 1.18
Cc1nc(N2N=C3/C(=C/c4ccc(F)cc4)CCCC3C2c2ccc(F)cc2)sc1C(=O)N(C)C (stereo not given) | -0.199
COc1cc(-c2noc(-c3cccc(Cl)c3)n2)cc(OC)c1OC | 0.103
Cc1cccc(NC(=O)Cn2c([N+](=O)[O-])cnc2C)c1C | -0.0517
CSc1nc(N(C)CCO)c2sc3nc(-c4ccco4)c4c(c3c2n1)CCC4 | -0.00823
CCc1ccc(C(=O)/C=C2\Sc3ccccc3NC2=O)cc1 | -0.113
Cc1cccc(C(=O)NN2C(=O)C3C(c4ccccc4)C=CC(c4ccccc4)C3C2=O)c1 (stereo not given) | 0.291
COc1ccc(Cl)cc1C(=O)NC(=S)Nc1cc(-c2nc3ccccc3[nH]2)ccc1C | -0.287
CCCCNC(=O)C(=O)c1ccccc1NC(C)=O | -0.0152
C=CCSC1=C(C#N)C(c2ccccc2OCC)CC(=O)N1 (stereo not given) | -0.93
CC(=O)/C=C1\SC(CC(=O)O)C(=O)N1c1ccccc1 (stereo not given) | 0.00817
COc1ccc(/C=N/N2CCN(C3c4ccccc4-c4ccccc43)CC2)cc1O | -1.47
Cc1ccc(C(=O)Nc2ccc(C(=O)/C=C/c3cccs3)cc2)cc1 | -0.11
O=C(CNc1ccc2ccccc2c1)N/N=C/c1cc2ccccc2nc1Cl | 0.0666

SMILES | z-score
CC(C)C(NS(=O)(=O)c1ccc2c(c1)oc(=O)n2C)C(=O)N1CCN(Cc2ccccc2)CC1 (stereo not given) | 0.093
O=C(CCc1ccccc1)NC(=S)Nc1cccc(Br)c1 | 0.0148
O=C(NCc1cccs1)c1cc(-c2cccs2)on1 | -0.882
COc1ccc(S(=O)(=O)/N=C2/C=CC(=O)C(C)=C2C)cc1 | 0.523
COC(=O)c1[nH]c2cc(OC)ccc2c1NC(=O)CCN1CCN(c2cccc(C)c2C)CC1 | 0.556
CCOC(=O)N1CCN(C(=O)COc2cccc3c2CCN(Cc2ccccc2C)C3=O)CC1 | -0.362
CCN1C(=O)NC(c2cc(Br)ccc2OC)C(C(=O)OC)=C1C (stereo not given) | 1.19
O=C(OCn1nnc2ccccc2c1=O)c1cccnc1Cl | 1.51
O=C(c1ccccc1)N1CCN(C(=O)c2cc3ccccc3o2)CC1 | 0.163
O=c1oc2cc(O)c(Cl)cc2c2ccccc12 | 1.75
COC(=O)c1ccc(N=NN2CCOCC2)cc1 | -0.0728
O=S(=O)(c1ccc(OCC(O)CN2CCCC2)cc1)N1CCOCC1 (stereo not given) | 0.233
COc1ccc(OC)c(NC(=O)c2cc3ccccc3o2)c1 | -0.411
Cc1nn(C(=O)C(C)N2C(=O)c3ccccc3C2=O)c(C)c1Br (stereo not given) | -0.0805
O=S(=O)(c1cccc2ccccc12)n1nnc2ccccc21 | 0.673
CCC(CC)NC(=O)COC(=O)CCC(=O)c1cccs1 | -0.187
O=C(NCCOC(=O)c1ccc(C(=O)OCCNC(=O)c2cccnc2)s1)c1cccnc1 | -0.633
CC(C)CC(=O)O/N=C1\C(=O)N(c2ccccc2)c2ccccc21 | -0.502
COc1ccc(CCNC(=O)Cn2nnc3ccccc3c2=O)cc1 | 0.0147
O=S1(=O)CC/C(=N\O)c2ccccc21 | -0.0102
CCOc1ccc(CNc2ccc(N3CCCC3)cc2)cc1 | 0.0796
Cc1cccc(N(CC(=O)NCc2ccc3c(c2)OCO3)C(=O)CCC(=O)Nc2ccccn2)c1C | -0.209
